Drawing on the RNAGym collection of RNA variant scans (doi:10.7554/elife.90254), this text covers self-cleavage for 167 variants.

B1: LINE1-mini (parent)
chain: GGCAGAGCUCAACACAGCGUGGCAAAGUGGCUGUGGCUAGACUGCC

The source gives no read counts; variants with many changes may rest on few reads.

Variants of B1 are the subject of the series. The series can be described thus: self-cleavage, relative activity (ratio to wild type); higher = more cleavage; in vitro, sequencing; the parent is a self-cleaving ribozyme.
On to A24G U34C G40U G44A, for which the self-cleavage was determined as 0.07.

Take C23A A25C G36U: the self-cleavage came to 0.04.

Turning to G22U U34G G44C, the self-cleavage amounted to 0.14.

As to C23A C37U C42A, the self-cleavage came to 0.03.

In the case of G22U G30U C42U, the self-cleavage stood at 0.33.

On to C23G G30A U34G G36U, for which the self-cleavage came out at 0.03.

For A24U G27U C37A G40A, the self-cleavage was determined as 0.02.

For C23A A26C U32G G33C U34C, the self-cleavage is 0.16.

In the case of G21U U32G G36U, the self-cleavage stood at 0.1.

C23U G27U G30U G44A: the self-cleavage amounted to 0.46.

G22U G29A U43G: the self-cleavage came out at 0.

Consider C23U U32A C45G, for which the self-cleavage was determined as 0.17.

For the variant G21U G36A A41C, the self-cleavage was 0.11.

For the variant A24G G40C U43C, the self-cleavage amounted to 0.14.

On to A24C G30C G33U U34A G44U, for which the self-cleavage was found to be 0.05.

G22C U38A G40C: the self-cleavage worked out at 0.12.

Consider C23A C37U U38A A39C, for which the self-cleavage was found to be 0.08.

Regarding A24G C31G U32G, the self-cleavage was 0.01.

C23U G36C G40A C46G: the self-cleavage was 0.09.

With G22A U28A C37U G44A, the self-cleavage was determined as 0.02.

For G22A G30A U32C, the self-cleavage is 0.06.

Consider A24C A26C G29U, for which the self-cleavage is 0.33.

Take G22C U32A U34A C37U C45U: the self-cleavage amounted to 0.03.

Take A24C G27A C46A: the self-cleavage is 0.35.

G22A U28C G29A G30C C45A: the self-cleavage stood at 0.39.

Take C23A G36U A41G: the self-cleavage came to 0.03.

Turning to A24C G35U C46A, the self-cleavage came out at 0.05.

In the case of G22C G29A G30U, the self-cleavage is 0.36.

For the variant A24G G27C G33U U43C G44U, the self-cleavage turned out to be 0.04.

Consider G22U U32C U43C, for which the self-cleavage stood at 0.04.

As to G22U A24C A39C A41C, the self-cleavage was found to be 0.07.

For C23U G30U C46A, the self-cleavage stood at 1.23.

On to C23U U32G C37G G40U, for which the self-cleavage came out at 0.04.

For A24U G33A G36U, the self-cleavage came out at 0.02.

For the variant A24G A25U G40C, the self-cleavage was found to be 0.31.

For the variant C23A C31G G35U, the self-cleavage amounted to 0.03.

In the case of C23A G40C C42U, the self-cleavage is 0.02.

Regarding G21U G33U G40A, the self-cleavage stood at 0.11.

In the case of C23A U32G C37U G44C, the self-cleavage amounted to 0.05.

As to A24C C42U U43G, the self-cleavage was determined as 0.

In the case of G22C A24U A25U, the self-cleavage was determined as 0.45.

For the variant C23U C31U U32G, the self-cleavage came out at 0.03.

For the variant C23A A39G G44A, the self-cleavage worked out at 0.04.

Consider C23A G29A U38G, for which the self-cleavage came to 0.02.

For A24G G29U G30A G40C C45G, the self-cleavage is 0.05.

Turning to A24G U28A G30C, the self-cleavage is 0.33.

Turning to C23U A41C G44U, the self-cleavage was found to be 0.13.

On to C23U G44U C45A, for which the self-cleavage was found to be 0.25.

For C23A G33C A41U, the self-cleavage was found to be 0.06.

With C23U U28A C37A, the self-cleavage was determined as 0.01.

On to A24G A25U C45G, for which the self-cleavage turned out to be 0.15.

As to G22A C23G G27C C46A, the self-cleavage is 1.12.

Regarding C23A A25G G33C U43G C45U, the self-cleavage was 0.01.

Take C23A A26C G27C C37A: the self-cleavage was 0.01.

Turning to C23A A24C G35U, the self-cleavage amounted to 0.07.

Take G22U G30U G33U: the self-cleavage turned out to be 0.01.

On to C23G G36A C37A, for which the self-cleavage worked out at 0.01.

Take A24C A25U U34G C37U C42G: the self-cleavage turned out to be 0.

For the variant C23U U28G G33C A39U, the self-cleavage was 0.04.

As for C23A A25C G35U G36C G44A, the self-cleavage amounted to 0.15.

As for G21U U28C C31A, the self-cleavage amounted to 0.33.

In the case of C23U G33C U38G, the self-cleavage was 0.01.

G22U G40A C46U: the self-cleavage is 0.08.

For the variant A24U A41G G44A, the self-cleavage amounted to 0.1.

G21U U28A U38A: the self-cleavage worked out at 0.31.

C23G G33U C42G: the self-cleavage was determined as 0.11.

Take A24G U38G A39G: the self-cleavage was determined as 0.

In the case of C23U G44C C45U, the self-cleavage is 0.05.

For G22C U43C C46U, the self-cleavage amounted to 0.02.

Take G22C A25C U32G: the self-cleavage worked out at 0.06.

In the case of G22A C23G G27A C45A, the self-cleavage was found to be 0.62.

With G22U C23G A25C, the self-cleavage was 1.18.

Take C23U A26U G33U C46A: the self-cleavage was 0.05.

Consider A24G U34C A39G G40A, for which the self-cleavage amounted to 0.13.

As to G21U G36C A41C, the self-cleavage worked out at 0.11.

As for C23U A24G A26G G36A, the self-cleavage stood at 0.15.

Take A24U G27A G35U C46U: the self-cleavage came out at 0.07.

Take G22A A25C U32A: the self-cleavage came out at 0.06.

In the case of C23U U28G G33U G35C C42U, the self-cleavage was found to be 0.

On to G21U G36A G44C, for which the self-cleavage came out at 0.2.

For the variant A24U G30A G36C, the self-cleavage is 0.22.

Regarding G22C U34A A41G, the self-cleavage is 0.02.

For the variant C23G A26G U32A G33A, the self-cleavage is 0.03.

On to G22C A24G G44U, for which the self-cleavage worked out at 0.07.

On to A24G G33A U34G U43C, for which the self-cleavage was found to be 0.05.

Regarding C23A U28G G33U, the self-cleavage was found to be 0.06.

As for C23G A26G G33C U43A, the self-cleavage amounted to 0.01.

In the case of C23A G30U C42A, the self-cleavage came out at 0.11.

As for A24U G36A G40C C46A, the self-cleavage was 0.18.

Take G22U C23A U43G: the self-cleavage is 0.

Regarding A24U G33A U34A, the self-cleavage came out at 0.04.

As for C23A C31U U38C G44C, the self-cleavage came out at 0.04.

Consider G22C U28A U34G, for which the self-cleavage worked out at 0.05.

For the variant A24U C37U C45A, the self-cleavage worked out at 0.04.

Take A24G G35C G44U: the self-cleavage was 0.04.

In the case of C23U U32G A41G, the self-cleavage was found to be 0.07.

Consider G21U G35C G40A, for which the self-cleavage stood at 0.03.

Take C23U G30A G35C: the self-cleavage turned out to be 0.16.

Take A24C U34A C37G: the self-cleavage is 0.01.

Consider C23U U34G G35U, for which the self-cleavage is 0.11.

For the variant G22U A25G A41U C42G, the self-cleavage amounted to 0.04.

Consider G22A A39G G44U, for which the self-cleavage came out at 0.08.

On to C23U C31A G36C C37U, for which the self-cleavage stood at 0.05.

G22C G27C G44C: the self-cleavage amounted to 0.13.

As for C23G C42G C45G, the self-cleavage came out at 0.02.

For the variant G22A C23A G29U, the self-cleavage turned out to be 0.62.

For C23G U32A U38C A39G, the self-cleavage was 0.05.

For C23U G29A G40C, the self-cleavage amounted to 0.06.

Take C23U G29A G33C U34A A39C: the self-cleavage was 0.01.

As for C23A G30A U34A, the self-cleavage amounted to 0.16.

Regarding C23U U38C G40U U43A, the self-cleavage was determined as 0.03.

Turning to A24G A25C C46U, the self-cleavage came to 0.71.

For G22C A25C A26G, the self-cleavage came out at 0.41.

In the case of C23A A39G C42G, the self-cleavage was 0.02.

Turning to C23G A26G G33U, the self-cleavage turned out to be 0.06.

Turning to G22A A24C C45A, the self-cleavage amounted to 0.59.

Consider A24C U38G C42A, for which the self-cleavage came out at 0.01.

On to G21U G35U C42U C46U, for which the self-cleavage is 0.08.

On to C23G A24C G29A C37U, for which the self-cleavage came to 0.02.

Consider G22A U28C C42A G44U, for which the self-cleavage came to 0.09.

For the variant C23A U32A A39G, the self-cleavage is 0.04.

Turning to A24C C31G C37U A41U, the self-cleavage was 0.07.

For G22U A25U C42A, the self-cleavage amounted to 0.3.

As to G22A A25U A26G G29U C37A, the self-cleavage turned out to be 0.11.

With C23U U28G C31U, the self-cleavage was found to be 0.75.

Turning to C23A C31G U32G G33C C42A C45U, the self-cleavage amounted to 0.01.

With G22A U32A G36U A41G, the self-cleavage was 0.04.

With G22U A39G U43C, the self-cleavage is 0.11.

Take C23G G30U A39G: the self-cleavage amounted to 0.02.

On to G22C G29C C46U, for which the self-cleavage came out at 0.41.

Turning to C23G G33A A41U U43A, the self-cleavage was 0.15.

G22U G35U A41C: the self-cleavage came out at 0.04.

Regarding G21U U38C G40U, the self-cleavage is 0.11.

A24C A25G U34C A39U: the self-cleavage is 0.05.

With G21U U32G G40C C46U, the self-cleavage was 0.05.

Take A24C G29A G36U G40A: the self-cleavage amounted to 0.16.

G22A A24C C42U: the self-cleavage is 0.5.

G22U G27A G33A U34G: the self-cleavage is 0.08.

Take A24U G35C U38C G44A: the self-cleavage is 0.09.

As to A24G A25U G33A, the self-cleavage came to 0.04.

With A24C G29U U43A, the self-cleavage was found to be 0.01.

As to C23G A24C G30U, the self-cleavage is 0.29.

With G22A A26U G44U, the self-cleavage was 0.39.

In the case of G22U C23G U32A, the self-cleavage was 0.04.

Regarding C23A A25G U28C C31U U43G, the self-cleavage turned out to be 0.01.

For A24U A26U U43A, the self-cleavage amounted to 0.11.

For C23G G27A U38G, the self-cleavage worked out at 0.04.

As for C23G G30U U43C, the self-cleavage was 0.07.

Take G22U G27U G33U G36U A39C G40A: the self-cleavage worked out at 0.06.

Consider A24C C45G C46G, for which the self-cleavage came to 0.

In the case of C23U U32C G40U, the self-cleavage was determined as 0.09.

In the case of C23A G35U A39G A41U, the self-cleavage was determined as 0.03.

A24C G44C C45U: the self-cleavage stood at 0.05.

Turning to A24C C31G U34C, the self-cleavage came to 0.16.

On to G22A A25C C42U, for which the self-cleavage came to 0.35.

Regarding G22A A26U G40C, the self-cleavage is 0.06.

As for A24C G33U A39G, the self-cleavage came to 0.07.

Turning to G22C G30U U32G C46U, the self-cleavage came to 0.02.

On to A24C A26G C37G C45G, for which the self-cleavage came out at 0.04.

With C23A G30C G35U G36U, the self-cleavage was determined as 0.16.

In the case of G22C G27A G44U, the self-cleavage turned out to be 0.19.

With G22A A41C C42A, the self-cleavage was found to be 0.09.

Take C23U C31G C46A: the self-cleavage worked out at 0.19.

In the case of G22A A24U A39U, the self-cleavage amounted to 0.55.

With G22A C23U G36U, the self-cleavage is 0.04.

For the variant G22A C23U G36U C37U, the self-cleavage was 0.

With A24G A26U A39C, the self-cleavage came out at 0.12.
